Some of the results follow.

To fix the notation:
T1: UNK ZnF1-3 (human, UniProt Q9C0B0 31-174)
T1 sequence: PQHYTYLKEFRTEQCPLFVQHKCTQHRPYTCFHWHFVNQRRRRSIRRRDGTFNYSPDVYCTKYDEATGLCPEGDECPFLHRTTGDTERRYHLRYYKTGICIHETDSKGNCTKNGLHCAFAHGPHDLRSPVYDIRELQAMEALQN

B1: chr2:29004620:29004621:+_ENSG00000213639_ENST00000296122|hu_mus|FALSE|FALSE (ssRNA)
RNA: GGGAGUUCUACAGUCCGACGAUCCAAUUUAAUAUUAAAUCUUCGUUUACACUCAUCGUAGAAUCCAUAAAUGCGAUUGAUGCUAGCACACUCAUGGUUUCCUCUUAGAAGAAAGAAGUUCUCCGGGUAUUUGAUUUUGUAAGCCAACAGAGGAUUGAGCAUCA
B2: chr5:144470944:144470945:+_ENSMUSG00000018001_ENSMUST00000116456|mus_mus|FALSE|FALSE (ssRNA)
RNA: GGGAGUUCUACAGUCCGACGAUCAUAUACAUUGUAUAACACUGAAGAAAUUAAUACAUAUGUACAUUAUUUACAUAGUAACUAUUUAUUGUAAAUAGAAAUGUUUUCUAAGAUAAAAAGAAAUCACAACAUGGUUUCUGGUCUCAACAGAGGAUUGAGCAUCA
B3: chr3:176767854:176767855:-_ENSG00000177565_ENST00000430069|hu_hu|hu_hu_hu_mus_False|38_58 (ssRNA)
RNA: GGGAGUUCUACAGUCCGACGAUCGACAUCCUUGUUACUGGGCACGUCCUGCCCUCCUUCCCGUAUGCAGUGUCUAAGUACUAACUGCGUAGGGCCACUGGUGCUGUUCUCACUGAGGUUCCAGAUUCUUGCCGUGGAGUCUCCCAACAGAGGAUUGAGCAUCA
B4: chr15:99544167:99544168:+_ENSMUSG00000023018_ENSMUST00000023759|mus_hu|FALSE|FALSE (ssRNA)
RNA: GGGAGUUCUACAGUCCGACGAUCAGGGCUCAGCUGCCCCAAGGUUGUCCAGUGUCAACCUUUCAAGGGAGGGAAAAUGGCAGGAAGGGGAAGACGGGGAGAAAAUUCUGCUGUCCCCAGUGUAGAACAGGGAGGGAUUUGGGGCAACAGAGGAUUGAGCAUCA
B5: chr5:144935201:144935202:+_ENSMUSG00000038970_ENSMUST00000041804|mus_hu|FALSE|FALSE (ssRNA)
RNA: GGGAGUUCUACAGUCCGACGAUCCAUUAAGUCGAAUAUUUUUUGGUGACUGGGCAAAUCUUCCGAUUUGUCCACAUCAUUAAAUAUAUUGUUGAAAGGGCUCUCGGGGCCACUGGUCACGUGUAAGUCCCCUGGUAAGCUAGACAACAGAGGAUUGAGCAUCA
B6: chr16:75691255:75691256:+_ENSG00000166848_ENST00000300086|hu_hu|FALSE|FALSE (ssRNA)
RNA: GGGAGUUCUACAGUCCGACGAUCAAAGUUAUAUUUAUUUUCAACAAUGAAAACAACACAACAAAGUGGAGUCAAUCCACUAAUUUUUUAAAUCUAACACAAUGCUUAGCACAAACAAUACUCAAUAAAUAACACAUUAACCAACAACAGAGGAUUGAGCAUCA
B7: 71576936_71577056_1226_CDS_ENSG00000075292_ENST00000264447|human|control|control (ssRNA)
RNA: GGGAGUUCUACAGUCCGACGAUCACUCAUUGUCUGGCUAACUGUUUGGUUAAUGGAUUGGUUGACGGAUUUUAUGGGUUCAAGGACUGACUGUCCUCCUGAAAUGUGUAAGCCUGACAUCUUGGUUCCACUCUCAACUGAGAACAACAGAGGAUUGAGCAUCA
B8: chr3:131220538:131220539:-_ENSG00000114686_ENST00000264995|hu_hu|FALSE|FALSE (ssRNA)
RNA: GGGAGUUCUACAGUCCGACGAUCUUCUUCAGAAAGAUGCUCAUCCCACCAUGUACCACUCUUUCCAUGAAGACCUCUAACAAAAAGCCAGAUGUGUGUUCUGUUCCCCGGGCCCAGGGCAGCACCCAGGCCGUCCCCGAGUCGCAACAGAGGAUUGAGCAUCA
B9: chr12:105536279:105536280:+_ENSG00000136051_ENST00000332180|hu_mus|hu_hu_hu_mus_True|18_38 (ssRNA)
RNA: GGGAGUUCUACAGUCCGACGAUCAGCACUGAACAUGUAAUGUAAUCUGGCUGCAUCGACAGCAUUUUCAUAUACAUCAUCUAAAUAAAUCGGGAAGACAGCUCGAUGCCAGUAUAAAAAACAACAGUCACACUGUGCUUGGACCAACAGAGGAUUGAGCAUCA
B10: chrX:40531158:40531159:-_ENSG00000180182_ENST00000324817|hu_hu|motif|central (ssRNA)
RNA: GGGAGUUCUACAGUCCGACGAUCAUGCAGAUUUCCUGGAGACUGUGUGUGCAUCAUUGAGGGAGACUGAUUGACUGUGCGGUGAUAAGAUGUAGGGGGUGAAGUAAGAGGAUAAGCACCUGAUGUUCCUGGCUGCUUUGGAAACAACAGAGGAUUGAGCAUCA
B11: chr11:96688998:96688999:-_ENSMUSG00000038615_ENSMUST00000081775|mus_mus|FALSE|FALSE (ssRNA)
RNA: GGGAGUUCUACAGUCCGACGAUCCCACCCGAACCCCAAUCAGACUCAGCAGGAUGGUGAACUGGAGAAGUCCUUCCGUUAAAUAUUUCUUCAGAGAAAGCAUUGCUGAAGGACCAGAAUAUUUAUGCUUUUUUGUUUUUAAAUCAACAGAGGAUUGAGCAUCA
B12: chr1:29069144:29069145:+_ENSG00000198492_ENST00000541996|perfect_dup|motif|central (ssRNA)
RNA: GGGAGUUCUACAGUCCGACGAUCGAGAAGUCAAUCCCACUGGGAAAAAAAUUAAAACCAUGCUGACCAAGAAAUGGAGUGCGGCCGGGGGCUCCUGGUUGCCCAAACAUUGCAUCUGGUAGAAAGUGGGGCUCUCCGUUGCUCCAACAGAGGAUUGAGCAUCA
B13: 30003089_30008819_4271_CDS_ENSG00000104067_ENST00000400011|human|control|control (ssRNA)
RNA: GGGAGUUCUACAGUCCGACGAUCAGAUGGCUGGGCAUACUGCGAGGGCAAUGGAGGAGGAGGGGGAGUGGCCUGGAUGGGUUCAUAGCGUUUCUCGCCAAAUGAUCUAUCCACACCAUCAGCUUCAGGAGGCUUUCCCUUUGACAACAGAGGAUUGAGCAUCA
B14: chr4:62795864:62795865:+_ENSMUSG00000028358_ENSMUST00000107415|mus_mus|motif|central (ssRNA)
RNA: GGGAGUUCUACAGUCCGACGAUCGCCUCCCAGAAAUCACAUGUGAAAAGAAACCGAGUCCCCCAUAAGAUAAAAAAUUUGCGGAAGUAUUGUGAAAAAUGACGACAACAACAACAACAAAAUUGAGUGGAGAGUCAGCUAUGUCAACAGAGGAUUGAGCAUCA
B15: chr6:38652254:38652255:-_ENSG00000124767_ENST00000373365|hu_hu|hu_hu_hu_mus_False|18_98 (ssRNA)
RNA: GGGAGUUCUACAGUCCGACGAUCCGAGAACUUCAUAAUGGGAAAAUCAAGCUUCUGCAGGAGGGUCAGUCCAAGAACCCUCGUAUAAAAAUCCAGGGACUUCUUAGGAUCCUUAAUUCGUAGCAUGGUUUGCUGCAGUAGAAACAACAGAGGAUUGAGCAUCA
B16: chr12:16048344:16048345:+_ENSG00000023734_ENST00000419869|hu_hu|hu_hu_hu_mus_True|8_38 (ssRNA)
RNA: GGGAGUUCUACAGUCCGACGAUCAGAUCGUCCAUAAGUAAUAACCAAAAUCUCUCCUUCAGGAAUAUACUCCAUGCUGCUAACAGACAUAUUAAAAUUUAGAGAUUUCACUUCUGUCAUUGUGGCAUGAUCCCAAAGCCGAACCAACAGAGGAUUGAGCAUCA
B17: 108366600_108366720_658_CDS_ENSG00000106692_ENST00000223528|human|control|control (ssRNA)
RNA: GGGAGUUCUACAGUCCGACGAUCUUUCCUGUCAAUGUGUUCUUUAAGUCUCAAGUGGCCGUGCCAGAGGUAGUUGCCACUCCUCUCAUGAAAGACUACCAAGUGGAUCGCAUGAGUGGCCAGUUUGCAGAUAUAGUGCAGGGGCAACAGAGGAUUGAGCAUCA
B18: chr6:119774991:119774992:-_ENSMUSG00000030172_ENSMUST00000032279|mus_hu|FALSE|FALSE (ssRNA)
RNA: GGGAGUUCUACAGUCCGACGAUCGCCACCUCCAACACUGCUUCCCGAACUCCCUCCCGUACUGUUGGUUCGACGGUGACCCAAGCGAGGGGAACGUGGAAGCCUGGGUGAACGCCCAGGGCUCUGGCUGCUCGGCUCCACCUUCAACAGAGGAUUGAGCAUCA
B19: chr9:79619141:79619142:-_ENSMUSG00000032328_ENSMUST00000034878|mus_mus|motif|central (ssRNA)
RNA: GGGAGUUCUACAGUCCGACGAUCAAAUUAAAUGGUGAUGUCAGCAGUGUUACUACUGUUUCUAUAUUUAUGAUUAAUUACGGGCAGUACAACUCCCAGAAGGAAAGAGAUGGAUCCAAUAGUGAUGUAAGCAAUUCCCAAAAACAACAGAGGAUUGAGCAUCA
B20: chr16:91657502:91657503:+_ENSMUSG00000022961_ENSMUST00000114036|mus_mus|motif|central (ssRNA)
RNA: GGGAGUUCUACAGUCCGACGAUCUCUAGGUGCUAACCUGUAUGGCCUAGGUGCUAUCCUAUAGGACCUGGGUGCGGUUCGGUAGGGCCUAGGUGAUACCCUAUAGGGAUCCGGAGUUAGUCUGUAGGGAUCAUGGCCUAAUCUCAACAGAGGAUUGAGCAUCA
B21: chr4:144447494:144447495:+_ENSG00000153147_ENST00000283131|hu_mus|FALSE|FALSE (ssRNA)
RNA: GGGAGUUCUACAGUCCGACGAUCCCAGUUGUGCAAUGUAGACUUGGGAACCAAAACCAUAUGAGGACCAGGAAUAUUUCUAUAGUGUUUCAUGUAUCCAAGAAGAGAAAUUGUUUGAAGUGUCUUUCCCAAACCCAUUUCAUCCAACAGAGGAUUGAGCAUCA
B22: 36138157_36138277_3497_3pUTR_ENSG00000100320_ENST00000405409|human|control|control (ssRNA)
RNA: GGGAGUUCUACAGUCCGACGAUCAUACAACAAAAAUUGUCUUAACAGCAACAAACCAAACUUUGGCUUGGGGUGGGGGGACCCUUAAAAAUGGCCAGUGGACUGGGCAGUUGGUGUCCCCUUAUUCUCUGUCUUCCUCCCCAGCAACAGAGGAUUGAGCAUCA

This assay deals with T1, UNK ZnF1-3. Description: nsRBNS (natural sequence RNA bind-n-seq); RBNS binding buffer (assumed for nsRBNS): 25 mM Tris pH 7.5, 150 mM KCl, 3 mM MgCl2, 0.01% Triton X-100, 500 ug/ml BSA, 20 U/ml SUPERase-In, 4 C; UNK is unkempt and MSI1 is Musashi-1; names of the RNAs are library labels; protein concentration not given here; high values mean tight binding.
Molecule B1 came in with a binding signal of 0.892 enrichment R. Then B2, with 0.586 enrichment R; and B3, with 0.618 enrichment R; and B4, with 2.37 enrichment R. In turn, B5 registered a binding signal of 0.634 enrichment R. With B6 the figure was 2.08 enrichment R. As to B7, the binding signal is 0.619 enrichment R. With B8 the figure was 0.913 enrichment R; with B9, 2.45 enrichment R; with B10, 2.37 enrichment R. B11 showed a binding signal of 1.11 enrichment R.

In the case of B12, the binding signal came to 1.27 enrichment R.

B13 yielded a binding signal of 1.27 enrichment R. Then B14, with 2.79 enrichment R. With B15 the figure was 0.809 enrichment R; with B16, 1.18 enrichment R. Then B17, with 0.869 enrichment R. The molecule B18 yielded a binding signal of 0.762 enrichment R. Turning to B19, the binding signal turned out to be 1.83 enrichment R. Molecule B20 gave a binding signal of 0.313 enrichment R. With B21 the figure was 1.57 enrichment R; with B22, 1.22 enrichment R.

The values above are taken from publication PMC12136788.
